The list shows a part of the results. Interaction screen of human proteins with wild-type SARS-CoV-2 proteins by split-DHFR complementation in yeast, 1 µg/mL methotrexate. Value = fitness of the pair (three or more lineages) minus that of the viral protein without a human partner, on a scale set by negative (0) and fused positive (1) controls, mean of up to three cultures; higher = more likely to interact. Active = false discovery rate below 0.05 (one-sided t-test) in at least one culture. Nearly all pairs are not hits, and differences among them are mostly noise (correlation between cultures about 0.3); most hits were seen in one culture only. Human sequences are the Swiss-Prot entries looked up by gene name; the clone may be another isoform. NSP2 values were corrected by the authors for a growth advantage. Listed are human proteins with a hit and a random twelfth of the others.
Tests used:
Assay in all cases: yeast fitness gain over the viral ORF with no human partner (scaled fitness); higher = more likely to interact
[1] = target: SARS-CoV-2 E
Experimental: (§1)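 Split mouse DHFR complementation in pooled diploid yeast: human ORFeome clones carry one fragment and viral ORFs the other; barcoded lineages compete in 1 µg/mL methotrexate and fitness is read by barcode sequencing in up to three cultures.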

[2] = target: SARS-CoV-2 M
Experimental: as §1

[3] = target: SARS-CoV-2 N
Experimental: as §1

[4] = target: SARS-CoV-2 NSP1
Experimental: as §1

[5] = target: SARS-CoV-2 NSP10
Experimental: as §1

[6] = target: SARS-CoV-2 NSP12
Experimental: as §1

[7] = target: SARS-CoV-2 NSP13
Experimental: as §1

[8] = target: SARS-CoV-2 NSP14
Experimental: as §1

[9] = target: SARS-CoV-2 NSP15
Experimental: as §1

[10] = target: SARS-CoV-2 NSP16
Experimental: as §1

[11] = target: SARS-CoV-2 NSP2
Experimental: as §1

[12] = target: SARS-CoV-2 NSP5
Experimental: as §1

[13] = target: SARS-CoV-2 NSP6
Experimental: as §1

[14] = target: SARS-CoV-2 NSP7
Experimental: as §1

[15] = target: SARS-CoV-2 NSP8
Experimental: as §1

[16] = target: SARS-CoV-2 NSP9
Experimental: as §1

[17] = target: SARS-CoV-2 ORF10
Experimental: as §1

[18] = target: SARS-CoV-2 ORF3A
Experimental: as §1

[19] = target: SARS-CoV-2 ORF3B
Experimental: as §1

[20] = target: SARS-CoV-2 ORF6
Experimental: as §1

[21] = target: SARS-CoV-2 ORF7A
Experimental: as §1

[22] = target: SARS-CoV-2 ORF7B
Experimental: as §1

[23] = target: SARS-CoV-2 ORF8
Experimental: as §1

[24] = target: SARS-CoV-2 ORF9B
Experimental: as §1

[25] = target: SARS-CoV-2 ORF9Bwu (the 73-codon ORF)
Experimental: as §1

[26] = target: SARS-CoV-2 S
Experimental: as §1

[27] = target: SARS-CoV-2 NSP4
Experimental: as §1

Measured: yeast fitness gain

B1: ACSM1, Q08AH1 (protein)
chain: MQWLMRFRTLWGIHKSFHNIHPAPSQLRCRSLSEFGAPRWNDYEVPEEFNFASYVLDYWAQKEKEGKRGPNPAFWWVNGQGDEVKWSFREMGDLTRRVANVFTQTCGLQQGDHLALMLPRVPEWWLVAVGCMRTGIIFIPATILLKAKDILYRLQLSKAKGIVTIDALASEVDSIASQCPSLKTKLLVSDHSREGWLDFRSLVKSASPEHTCVKSKTLDPMVIFFTSGTTGFPKMAKHSHGLALQPSFPGSRKLRSLKTSDVSWCLSDSGWIVATIWTLVEPWTAGCTVFIHHLPQFDTKVIIQTLLKYPINHFWGVSSIYRMILQQDFTSIRFPALEHCYTGGEVVLPKDQEEWKRRTGLLLYENYGQSETGLICATYWGMKIKPGFMGKATPPYDVQVIDDKGSILPPNTEGNIGIRIKPVRPVSLFMCYEGDPEKTAKVECGDFYNTGDRGKMDEEGYICFLGRSDDIINASGYRIGPAEVESALVEHPAVAESAVVGSPDPIRGEVVKAFIVLTPQFLSHDKDQLTKELQQHVKSVTAPYKYPRKVEFVSELPKTITGKIERKELRKKETGQM
inactive: [1] -0.0979 | [2] 0.0292 | [3] -0.0761 | [4] 0.0475 | [5] -0.0741 | [6] -0.0308 | [7] -0.0531 | [8] -0.409 | [9] -0.0629 | [10] -0.0587 | [11] -0.153 | [12] 0.0536 | [13] -0.0669 | [14] -0.0397 | [15] 0.0205 | [16] 0.09 | [17] 0.0451 | [18] -0.0266 | [19] -0.1 | [20] -0.0174 | [21] 0.0101 | [22] 0.00637 | [23] -0.0145 | [24] -0.0518 | [25] -0.0891 | [26] -0.0505

B2: AGT, P01019 (protein)
chain: MAPAGVSLRATILCLLAWAGLAAGDRVYIHPFHLVIHNESTCEQLAKANAGKPKDPTFIPAPIQAKTSPVDEKALQDQLVLVAAKLDTEDKLRAAMVGMLANFLGFRIYGMHSELWGVVHGATVLSPTAVFGTLASLYLGALDHTADRLQAILGVPWKDKNCTSRLDAHKVLSALQAVQGLLVAQGRADSQAQLLLSTVVGVFTAPGLHLKQPFVQGLALYTPVVLPRSLDFTELDVAAEKIDRFMQAVTGWKTGCSLMGASVDSTLAFNTYVHFQGKMKGFSLLAEPQEFWVDNSTSVSVPMLSGMGTFQHWSDIQDNFSVTQVPFTESACLLLIQPHYASDLDKVEGLTFQQNSLNWMKKLSPRTIHLTMPQLVLQGSYDLQDLLAQAELPAILHTELNLQKLSNDRIRVGEVLNSIFFELEADEREPTESTQQLNKPEVLEVTLNRPFLFAVYDQSATALHFLGRVANPLSTA
inactive: [1] -0.00688 | [2] 0.00242 | [3] 0.0598 | [4] -0.104 | [5] -0.0479 | [6] -0.0154 | [7] 0.0267 | [9] 0.0556 | [10] -0.0861 | [11] -0.217 | [27] -0.0352 | [12] 0.00482 | [13] 0.0154 | [14] -0.138 | [15] -0.101 | [16] -0.419 | [17] -0.00936 | [18] 0.0571 | [19] -0.0746 | [20] -0.00087 | [21] -0.138 | [22] -0.0125 | [23] -0.000923 | [24] -0.0255 | [25] -0.0223 | [26] -0.0231

B3: BOC, Q9BWV1 (protein)
chain: MLRGTMTAWRGMRPEVTLACLLLATAGCFADLNEVPQVTVQPASTVQKPGGTVILGCVVEPPRMNVTWRLNGKELNGSDDALGVLITHGTLVITALNNHTVGRYQCVARMPAGAVASVPATVTLANLQDFKLDVQHVIEVDEGNTAVIACHLPESHPKAQVRYSVKQEWLEASRGNYLIMPSGNLQIVNASQEDEGMYKCAAYNPVTQEVKTSGSSDRLRVRRSTAEAARIIYPPEAQTIIVTKGQSLILECVASGIPPPRVTWAKDGSSVTGYNKTRFLLSNLLIDTTSEEDSGTYRCMADNGVGQPGAAVILYNVQVFEPPEVTMELSQLVIPWGQSAKLTCEVRGNPPPSVLWLRNAVPLISSQRLRLSRRALRVLSMGPEDEGVYQCMAENEVGSAHAVVQLRTSRPSITPRLWQDAELATGTPPVSPSKLGNPEQMLRGQPALPRPPTSVGPASPQCPGEKGQGAPAEAPIILSSPRTSKTDSYELVWRPRHEGSGRAPILYYVVKHRKVTNSSDDWTISGIPANQHRLTLTRLDPGSLYEVEMAAYNCAGEGQTAMVTFRTGRRPKPEIMASKEQQIQRDDPGASPQSSSQPDHGRLSPPEAPDRPTISTASETSVYVTWIPRGNGGFPIQSFRVEYKKLKKVGDWILATSAIPPSRLSVEITGLEKGTSYKFRVRALNMLGESEPSAPSRPYVVSGYSGRVYERPVAGPYITFTDAVNETTIMLKWMYIPASNNNTPIHGFYIYYRPTDSDNDSDYKKDMVEGDKYWHSISHLQPETSYDIKMQCFNEGGESEFSNVMICETKARKSSGQPGRLPPPTLAPPQPPLPETIERPVGTGAMVARSSDLPYLIVGVVLGSIVLIIVTFIPFCLWRAWSKQKHTTDLGFPRSALPPSCPYTMVPLGGLPGHQASGQPYLSGISGRACANGIHMNRGCPSAAVGYPGMKPQQHCPGELQQQSDTSSLLRQTHLGNGYDPQSHQITRGPKSSPDEGSFLYTLPDDSTHQLLQPHHDCCQRQEQPAAVGQSGVRRAPDSPVLEAVWDPPFHSGPPCCLGLVPVEEVDSPDSCQVSGGDWCPQHPVGAYVGQEPGMQLSPGPLVRVSFETPPLTI
inactive: [1] -0.00555 | [2] -0.125 | [4] -0.0461 | [5] -0.0989 | [6] -0.0222 | [7] -0.0411 | [9] 0.0554 | [10] -0.0461 | [11] -0.113 | [12] 0.118 | [14] 0.0905 | [15] 0.0336 | [16] 0.0491 | [17] 0.0357 | [18] 0.058 | [19] 0.0259 | [20] -0.132 | [21] -0.0504 | [22] 0.00531 | [23] -0.0868 | [24] 0.033 | [25] 0.0609 | [26] -0.0753

Source: the supplement of paper PMC11741623
